Results from the supplement of paper PMC11125491.
± gives the standard deviation of the averaged measurements. Growth of baker's yeast expressing single-residue variants of Pneumocystis jirovecii dihydrofolate reductase in 8.8 or 44 µM methotrexate (about 75% and 90% inhibition of the wild type). Selection coefficient per generation; 0 = like wild type, above 0 = less sensitive, below 0 = more sensitive or loss of function. No active / inactive call per row; the paper calls resistant above 0.220 (8.8 µM) or 0.243 (44 µM) together with a significance test. At 44 µM about 15% of codons end with one read or none, so the lowest values are floors (replicate rank correlation 0.74; 0.94 at 8.8 µM).

B1: UniProt A0EPZ9; numbered along this chain (parent)
chain: MDWQKSLTLIVALTLSRGIGLKNDLPWKLKSDMMFFSRVTSGLLVTRSTGQMNVVLMGRKTWESLPAHSRPLKNRINVVISRQEVLDLGGGAYHARSLDDALALLSQIYDSTSKIQLNRVFVIGGGELCKAAMEHSRLNRIIATVIHNEVDCDVFFPIDFRSSQSCLPWRKQDHSVLEAWVGSKVPQGKINENGFIYEFEMWIRDI

Variants of: B1
Experiment: selection coefficient against synonymous wild-type codons (log2 per generation); higher = faster growth than wild type
Conditions: with Saccharomyces cerevisiae carrying the variant on a plasmid
Method: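 Pooled growth of yeast carrying single-residue variants of P. jirovecii dihydrofolate reductase (own DFR1 gene intact), two passages at 30 °C, three cultures, sequenced before and after. Codons with under 15 starting reads are left out; codons of one change are averaged.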

Variant	selection coefficient against synonymous wild-type codons (log2) (methotrexate 8.8 µM)	selection coefficient against synonymous wild-type codons (log2) (methotrexate 44 µM)
MDWQKSLTLIVALTLSRGIGLKNDLPWKLKSDMMFFSRVTSGLLVTRSTGQMNVVLMGRKTWESLPAHSRPLKNRINVVISRQEVLDLGGGAYHARSLDDALALLSQIYDSTSKIQLNRVFVIGGGELCKAAMEHSRLNRIIATVIHNEVDCDVMFPIDFRSSQSCLPWRKQDHSVLEAWVGSKVPQGKINENGFIYEFEMWIRDI [F155M]	0.193 ± 0.02	0.147 ± 0.04
MDWQKSLTLIVALTLSRGIGLKNDLPWKLKSDMMFFSRVTSGLLVTRSTGQMNVVLMGRKTWESLPAHSRPLKNRINVVISRQEVLDLGGGAYHARSLDDALALLSQIYDSTSKIQLNRVFVIGGGELCKAAMEHSRLNRIIATVIHNEVDCDVNFPIDFRSSQSCLPWRKQDHSVLEAWVGSKVPQGKINENGFIYEFEMWIRDI [F155N]	0.346 ± 0.067	0.281 ± 0.097
MDWQKSLTLIVALTLSRGIGLKNDLPWKLKSDMMFFSRVTSGLLVTRSTGQMNVVLMGRKTWESLPAHSRPLKNRINVVISRQEVLDLGGGAYHARSLDDALALLSQIYDSTSKIQLNRVFVIGGGELCKAAMEHSRLNRIIATVIHNEVDCDVPFPIDFRSSQSCLPWRKQDHSVLEAWVGSKVPQGKINENGFIYEFEMWIRDI [F155P]	0.407 ± 0.038	0.469 ± 0.026
MDWQKSLTLIVALTLSRGIGLKNDLPWKLKSDMMFFSRVTSGLLVTRSTGQMNVVLMGRKTWESLPAHSRPLKNRINVVISRQEVLDLGGGAYHARSLDDALALLSQIYDSTSKIQLNRVFVIGGGELCKAAMEHSRLNRIIATVIHNEVDCDVQFPIDFRSSQSCLPWRKQDHSVLEAWVGSKVPQGKINENGFIYEFEMWIRDI [F155Q]	0.341 ± 0.034	0.343 ± 0.017
MDWQKSLTLIVALTLSRGIGLKNDLPWKLKSDMMFFSRVTSGLLVTRSTGQMNVVLMGRKTWESLPAHSRPLKNRINVVISRQEVLDLGGGAYHARSLDDALALLSQIYDSTSKIQLNRVFVIGGGELCKAAMEHSRLNRIIATVIHNEVDCDVRFPIDFRSSQSCLPWRKQDHSVLEAWVGSKVPQGKINENGFIYEFEMWIRDI [F155R]	0.214 ± 0.058	0.156 ± 0.075
MDWQKSLTLIVALTLSRGIGLKNDLPWKLKSDMMFFSRVTSGLLVTRSTGQMNVVLMGRKTWESLPAHSRPLKNRINVVISRQEVLDLGGGAYHARSLDDALALLSQIYDSTSKIQLNRVFVIGGGELCKAAMEHSRLNRIIATVIHNEVDCDVSFPIDFRSSQSCLPWRKQDHSVLEAWVGSKVPQGKINENGFIYEFEMWIRDI [F155S]	0.352 ± 0.049	0.343 ± 0.035
MDWQKSLTLIVALTLSRGIGLKNDLPWKLKSDMMFFSRVTSGLLVTRSTGQMNVVLMGRKTWESLPAHSRPLKNRINVVISRQEVLDLGGGAYHARSLDDALALLSQIYDSTSKIQLNRVFVIGGGELCKAAMEHSRLNRIIATVIHNEVDCDVTFPIDFRSSQSCLPWRKQDHSVLEAWVGSKVPQGKINENGFIYEFEMWIRDI [F155T]	0.332 ± 0.035	0.308 ± 0.045
MDWQKSLTLIVALTLSRGIGLKNDLPWKLKSDMMFFSRVTSGLLVTRSTGQMNVVLMGRKTWESLPAHSRPLKNRINVVISRQEVLDLGGGAYHARSLDDALALLSQIYDSTSKIQLNRVFVIGGGELCKAAMEHSRLNRIIATVIHNEVDCDVVFPIDFRSSQSCLPWRKQDHSVLEAWVGSKVPQGKINENGFIYEFEMWIRDI [F155V]	0.24 ± 0.051	0.176 ± 0.052
MDWQKSLTLIVALTLSRGIGLKNDLPWKLKSDMMFFSRVTSGLLVTRSTGQMNVVLMGRKTWESLPAHSRPLKNRINVVISRQEVLDLGGGAYHARSLDDALALLSQIYDSTSKIQLNRVFVIGGGELCKAAMEHSRLNRIIATVIHNEVDCDVWFPIDFRSSQSCLPWRKQDHSVLEAWVGSKVPQGKINENGFIYEFEMWIRDI [F155W]	0.0171 ± 0.017	0.0377 ± 0.027
MDWQKSLTLIVALTLSRGIGLKNDLPWKLKSDMMFFSRVTSGLLVTRSTGQMNVVLMGRKTWESLPAHSRPLKNRINVVISRQEVLDLGGGAYHARSLDDALALLSQIYDSTSKIQLNRVFVIGGGELCKAAMEHSRLNRIIATVIHNEVDCDVYFPIDFRSSQSCLPWRKQDHSVLEAWVGSKVPQGKINENGFIYEFEMWIRDI [F155Y]	0.000913 ± 0.04	0.0977 ± 0.035
MDWQKSLTLIVALTLSRGIGLKNDLPWKLKSDMMFFSRVTSGLLVTRSTGQMNVVLMGRKTWESLPAHSRPLKNRINVVISRQEVLDLGGGAYHARSLDDALALLSQIYDSTSKIQLNRVFVIGGGELCKAAMEHSRLNRIIATVIHNEVDCDVFAPIDFRSSQSCLPWRKQDHSVLEAWVGSKVPQGKINENGFIYEFEMWIRDI [F156A]	0.316 ± 0.044	0.306 ± 0.03
MDWQKSLTLIVALTLSRGIGLKNDLPWKLKSDMMFFSRVTSGLLVTRSTGQMNVVLMGRKTWESLPAHSRPLKNRINVVISRQEVLDLGGGAYHARSLDDALALLSQIYDSTSKIQLNRVFVIGGGELCKAAMEHSRLNRIIATVIHNEVDCDVFCPIDFRSSQSCLPWRKQDHSVLEAWVGSKVPQGKINENGFIYEFEMWIRDI [F156C]	0.165 ± 0.072	0.129 ± 0.047
MDWQKSLTLIVALTLSRGIGLKNDLPWKLKSDMMFFSRVTSGLLVTRSTGQMNVVLMGRKTWESLPAHSRPLKNRINVVISRQEVLDLGGGAYHARSLDDALALLSQIYDSTSKIQLNRVFVIGGGELCKAAMEHSRLNRIIATVIHNEVDCDVFDPIDFRSSQSCLPWRKQDHSVLEAWVGSKVPQGKINENGFIYEFEMWIRDI [F156D]	0.126 ± 0.084	0.319 ± 0.031
MDWQKSLTLIVALTLSRGIGLKNDLPWKLKSDMMFFSRVTSGLLVTRSTGQMNVVLMGRKTWESLPAHSRPLKNRINVVISRQEVLDLGGGAYHARSLDDALALLSQIYDSTSKIQLNRVFVIGGGELCKAAMEHSRLNRIIATVIHNEVDCDVFEPIDFRSSQSCLPWRKQDHSVLEAWVGSKVPQGKINENGFIYEFEMWIRDI [F156E]	0.525 ± 0.041	0.637 ± 0.02
MDWQKSLTLIVALTLSRGIGLKNDLPWKLKSDMMFFSRVTSGLLVTRSTGQMNVVLMGRKTWESLPAHSRPLKNRINVVISRQEVLDLGGGAYHARSLDDALALLSQIYDSTSKIQLNRVFVIGGGELCKAAMEHSRLNRIIATVIHNEVDCDVFGPIDFRSSQSCLPWRKQDHSVLEAWVGSKVPQGKINENGFIYEFEMWIRDI [F156G]	0.513 ± 0.04	0.619 ± 0.042
